# Experimental data reported in PubChem BioAssay (Tox21).
# Values joined by “and” are separate entries in the source; they are usually repeats but may differ in a detail not shown here. Equal values may be shown once. Inconclusive results, whose numbers are uncertain, are shown with a selection of clear calls. For some of these results: Potencies of inconclusive entries are doubtful fits and often do not repeat. Active and inactive are the calls of the source. Unless noted, the call rests on the fitted dose curve.
# Key:
# [1] = qHTS assay to identify small molecule antagonists of the sonic hedgehog signaling (Shh) pathway (AID 1259369); further: nearly all actives have a fitted effect of over 45% in size; further: potency means the concentration at half of the fitted maximal effect
# In short: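 Antagonist mode: compound added to 3T3 Gli1-Luc cells followed by conditioned-medium stimulation, 24 h at 37 C, 5% CO2. Inhibition taken as loss of Gli1-driven luciferase luminescence.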
# [2] = biological target: Estrogen receptor beta (Homo sapiens) (UniProt Q92731); test: qHTS assay to identify small molecule antagonists of the estrogen receptor beta (ER-beta) signaling pathway (AID 1259378; active means well fitted inhibition curve with a large enough effect in the signal ratio in the repeat runs, not every such curve was filed as active; inconclusive means weak or mixed curves, or effect the other way; inactive means no such curve, though single readings can be large or run the other way; the % refers to the signal ratio; further: on the % scale 0 is the no-effect control and ±100 the full control effect); conditions: ER-beta-UAS-bla HEK293T, beta-lactamase FRET ratio, 16 h; activity, negative = inhibition: at 92.4 µM (top of the series) unless noted
# In short: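 ER-beta-UAS-bla HEK293T cells in 2% charcoal-stripped FBS medium treated with compound plus 1nM final 17-beta-estradiol for 16 hr at 37C. Beta-lactamase reporter read by FRET substrate fluorescence after 2 hours at room temperature.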
# [3] = biological target: Progesterone receptor (Homo sapiens) (UniProt P06401); test: qHTS assay to identify small molecule antagonists of the progesterone receptor (PR) signaling pathway (AID 1346795; active means well fitted inhibition curve with a large enough effect in the signal ratio in the repeat runs, not every such curve was filed as active; inconclusive means weak or mixed curves; the % refers to the signal ratio; further: potency means the concentration at half of the fitted maximal effect; on activity change, negative = inhibition: on the % scale 0 is the no-effect control and ±100 the full control effect); conditions: PR-UAS-bla HEK293T, beta-lactamase FRET ratio, 16 h; activity change, negative = inhibition: at 92.4 µM (top of the series) unless noted
# In short: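 Antagonist mode: compounds tested against 1 nM (final) promegestone stimulation in HEK293T cells expressing PR-UAS-bla reporter, 16 hr at 37C, 5% CO2; beta-lactamase activity detected via B/G FRET substrate after 2 hr at room temperature.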
# [4] = qHTS assay to identify small molecule agonists of the progesterone receptor (PR) signaling pathway - cell viability counter screen (AID 1346799); further: nearly all actives have a fitted effect of over 45% in size; further: potency means the concentration at half of the fitted maximal effect
# In short: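 Cells (PR-UAS-bla HEK293T) are plated at 3,000/well in 2% charcoal-stripped FBS medium, rested 6 hr, dosed and incubated 16 hr at 37C. CellTiter-Glo is then added and luminescence measured after 30 min at room temperature.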
# [5] = qHTS assay to identify small molecule agonists of the TGF-beta/Smad signaling pathway (AID 1346859; active means well fitted activation curve with a large enough effect in the signal ratio in the repeat runs, not every such curve was filed as active; inconclusive means weak or mixed curves; the % refers to the signal ratio; further: potency means the concentration at half of the fitted maximal effect; on activation: on the % scale 0 is the no-effect control and ±100 the full control effect); conditions: SBE-bla HEK293T, TGF-beta/Smad beta-lactamase reporter, 5 h; activation: at 76.8 µM (top of the series)
# In short: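 Reporter line: HEK 293T with stably integrated SBE-controlled beta-lactamase. Compound exposure lasts 5 hr at 37 C and 5% CO2; substrate loading follows for 2 hr at room temperature, with emission read at 460 and 530 nm.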
# [6] = biological target: Progesterone receptor (Homo sapiens) (UniProt P06401); test: qHTS assay to identify small molecule agonists of the progesterone receptor (PR) signaling pathway (AID 1346784); conditions: PR-UAS-bla HEK293T, beta-lactamase FRET ratio, 16 h; activation: at 92.4 µM (top of the series) unless noted; further: nearly all actives have a fitted effect of over 30% in size; further: potency means the concentration at half of the fitted maximal effect
# In short: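 Cells (PR-UAS-bla HEK 293T, GripTite) were plated in assay medium containing 2% charcoal-stripped FBS and incubated 6 hr. Test compounds in DMSO were added for 16 hr at 37C. FRET substrate was then loaded for 2 hr at room temperature before fluorescence reading.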
# [7] = qHTS assay to identify small molecule agonists of the androgen receptor (AR) signaling pathway in the presence of an antagonist - cell viability counter screen (AID 1259379; active means well fitted curve in the direction sought with a large enough effect in the repeat runs; inconclusive means weak or mixed curves; inactive means no such curve, though single readings can be large; an effect the other way counts as inactive or inconclusive; further: potency means the concentration at half of the fitted maximal effect; nearly all actives have a fitted effect of over 25% in size)
# In short: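 Cytotoxicity counter-screen run in the same wells as the nilutamide-challenged (3.0 µM final) AR agonist assay in MDA-kb2 cells. Compounds tested at 15 concentrations for 16 h, 37 °C without CO2; CellTiter-Fluor fluorescence read.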
# [8] = qHTS assay to identify small molecule agonists of the estrogen receptor beta (ER-beta) signaling pathway - cell viability counter screen (AID 1259380; active means well fitted curve in the direction sought with a large enough effect in the repeat runs; inconclusive means weak or mixed curves; inactive means no such curve, though single readings can be large; an effect the other way counts as inactive or inconclusive; further: potency means the concentration at half of the fitted maximal effect; nearly all actives have a fitted effect of over 30% in size)
# In short: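 Cell viability counter screen: CellTiter-Glo luminescence (30 min, room temperature) measured in the same wells as the beta-lactamase readout, after 16 hr compound exposure at 37C of ER-beta-bla HEK293T cells in 2% charcoal-stripped FBS medium.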
# [9] = qHTS assay to identify small molecule antagonists of the progesterone receptor (PR) signaling pathway - cell viability counter screen (AID 1346798; active means well fitted curve in the direction sought with a large enough effect in the repeat runs; inconclusive means weak or mixed curves; inactive means no such curve, though single readings can be large; an effect the other way counts as inactive or inconclusive; further: nearly all actives have a fitted effect of over 50% in size; further: potency means the concentration at half of the fitted maximal effect)
# In short: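 Counter screen for cytotoxicity: viability of PR-UAS-bla HEK293T cells was measured with CellTiter-Glo luminescence following 16 hr compound exposure in the presence of R5020.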
# [10] = qHTS assay to identify small molecule agonists or antagonists of the thyroid stimulating hormone receptor (TSHR) signaling pathway - wild type cell line counter screen (AID 1259384); conditions: HEK293 wild type, cAMP HTRF counter-screen; cAMP activity change: at 92.4 µM (top of the series), stronger effect = higher value unless noted; further: on the % scale 0 is the no-effect control and ±100 the full control effect
# In short: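 Wild-type Hek293 cells, 800/well, 18 h at 37C, then compound with Ro20-1724 for 30 min RT. cAMP by HTRF (cAMP-d2/anti-cAMP cryptate), 1 h RT, fluorescence read. 15 concentrations, triplicates.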
# [11] = qHTS assay to identify small molecule agonists of the estrogen receptor alpha (ER-alpha) signaling pathway in the presence of an antagonist - cell viability counter screen (AID 1259386; active means well fitted curve in the direction sought with a large enough effect in the repeat runs; inconclusive means weak or mixed curves; inactive means no such curve, though single readings can be large; an effect the other way counts as inactive or inconclusive; further: potency means the concentration at half of the fitted maximal effect; nearly all actives have a fitted effect of over 30% in size)
# In short: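 Compounds tested at 15 concentrations for 22 h at 37C alongside 10.0nM (final) ICI-182,780 antagonist, in VM7Luc4E2 cells grown in phenol red-free, charcoal-stripped medium. Viability read by CellTiter-Fluor fluorescence after 1 h reagent incubation.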
# [12] = qHTS assay to identify small molecule antagonists of the estrogen receptor beta (ER-beta) signaling pathway - cell viability counter screen (AID 1259382; active means well fitted curve in the direction sought with a large enough effect in the repeat runs; inconclusive means weak or mixed curves; inactive means no such curve, though single readings can be large; an effect the other way counts as inactive or inconclusive; further: potency means the concentration at half of the fitted maximal effect; nearly all actives have a fitted effect of over 55% in size)
# In short: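 Cytotoxicity was measured in the same wells by CellTiter-Glo luminescence after 30 min at room temperature. Cells were ER-beta-bla HEK293T in charcoal-stripped serum, given compound together with 1 nM E2 and incubated 16 h at 37C.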
# [13] = qHTS assay to identify small molecule antagonists of the TGF-beta/Smad signaling pathway - cell viability counter screen (AID 1346824; active means well fitted curve in the direction sought with a large enough effect in the repeat runs; inconclusive means weak or mixed curves; inactive means no such curve, though single readings can be large; an effect the other way counts as inactive or inconclusive; further: on the % scale 0 is the no-effect control and ±100 the full control effect; nearly all actives have a fitted effect of over 50% in size)
# In short: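 SBE-bla HEK 293T cells, incubated overnight, then compound plus 0.25 ng/mL TGF-beta1 (stock added) for 5 hr at 37 C. Viability was read in the same wells by CellTiter-Glo luminescence after 30 min at room temperature.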
# Tags describe the fitted curve by direction and shape or compound fluorescence and quenching.
# UniProt Q92731, sequence (Q92731 whole entry, looked up): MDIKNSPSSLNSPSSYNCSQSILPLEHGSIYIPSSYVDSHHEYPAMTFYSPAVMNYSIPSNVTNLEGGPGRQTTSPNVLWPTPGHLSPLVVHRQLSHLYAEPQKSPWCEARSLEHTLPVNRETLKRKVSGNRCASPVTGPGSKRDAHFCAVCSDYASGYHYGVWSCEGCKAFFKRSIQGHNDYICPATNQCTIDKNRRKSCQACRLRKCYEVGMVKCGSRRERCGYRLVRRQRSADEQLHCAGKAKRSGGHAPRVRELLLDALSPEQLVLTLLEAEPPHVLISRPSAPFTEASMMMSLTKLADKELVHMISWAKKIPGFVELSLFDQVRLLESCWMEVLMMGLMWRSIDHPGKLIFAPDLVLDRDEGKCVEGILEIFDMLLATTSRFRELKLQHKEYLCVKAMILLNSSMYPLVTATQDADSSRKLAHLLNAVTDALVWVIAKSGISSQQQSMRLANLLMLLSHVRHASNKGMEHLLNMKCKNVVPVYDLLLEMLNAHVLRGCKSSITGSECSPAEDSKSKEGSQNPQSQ
# UniProt P06401, sequence (P06401 whole entry, looked up): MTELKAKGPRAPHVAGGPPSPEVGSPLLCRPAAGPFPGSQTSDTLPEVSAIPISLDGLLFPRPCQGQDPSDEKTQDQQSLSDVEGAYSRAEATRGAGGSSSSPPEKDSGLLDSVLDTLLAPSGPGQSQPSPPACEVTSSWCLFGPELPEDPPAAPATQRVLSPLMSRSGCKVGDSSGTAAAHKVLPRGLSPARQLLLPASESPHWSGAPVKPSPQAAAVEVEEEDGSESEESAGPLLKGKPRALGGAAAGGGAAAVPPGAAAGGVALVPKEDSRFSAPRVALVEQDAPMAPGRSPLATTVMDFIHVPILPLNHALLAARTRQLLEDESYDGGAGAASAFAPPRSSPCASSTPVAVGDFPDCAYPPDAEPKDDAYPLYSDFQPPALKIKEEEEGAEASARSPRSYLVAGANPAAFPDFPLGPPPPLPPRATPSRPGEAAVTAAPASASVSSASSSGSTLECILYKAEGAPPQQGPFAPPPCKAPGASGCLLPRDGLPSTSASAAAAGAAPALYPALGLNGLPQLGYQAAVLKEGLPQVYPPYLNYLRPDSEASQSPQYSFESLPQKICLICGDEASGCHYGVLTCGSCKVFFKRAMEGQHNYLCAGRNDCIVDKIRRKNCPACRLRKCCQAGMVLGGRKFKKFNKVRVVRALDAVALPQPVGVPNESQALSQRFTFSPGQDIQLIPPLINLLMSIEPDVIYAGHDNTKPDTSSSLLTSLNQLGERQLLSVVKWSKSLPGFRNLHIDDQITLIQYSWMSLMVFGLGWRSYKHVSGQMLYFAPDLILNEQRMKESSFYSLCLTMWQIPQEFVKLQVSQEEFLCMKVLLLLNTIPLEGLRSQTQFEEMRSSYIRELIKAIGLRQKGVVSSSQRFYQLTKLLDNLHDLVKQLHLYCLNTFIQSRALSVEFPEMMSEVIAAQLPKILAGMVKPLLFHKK
structure (smiles),measurement,setting,value
O=C1CCCC1,Potency,[1],"inconclusive: 2.47 µM [inhibitor, single point] and inconclusive: 243 nM [inhibitor, single point]"
same,"activity, negative = inhibition",[2],inconclusive: 6.81%
same,Potency,[3],inactive
CCOC(=O)[C@@H](C)Oc1ccc(Oc2nc3ccc(Cl)cc3o2)cc1,Potency,[1],"inconclusive: 68.6 µM [inhibitor, single point]"
same,"activity, negative = inhibition",[2],inconclusive: -41.6%
same,"activity change, negative = inhibition",[3],inconclusive: -30.5%
same,Potency,[4],"inconclusive: 43.3 µM [rising, partial curve]"
same,Potency,[5],inactive
C(/C=C/C=C/Nc1ccccc1)=Nc1ccccc1,Potency,[1],"inconclusive: 68.6 µM [inhibitor, partial curve, poor fit]"
same,Potency,[2],inactive
same,Potency,[4],"inconclusive: 61.1 µM [cytotoxic, partial curve, poor fit]"
CCOC(OCC)OCC,Potency,[1],inactive
same,Potency,[2],inactive
same,Potency,[6],inactive
CCCCCCCCCCCCCCCC/C=C/C1CC(=O)OC1=O (configuration not stated),Potency,[1],"inconclusive: 0.0333 µM [inhibitor, partial curve, poor fit]"
same,Potency,[2],inactive
same,"activity change, negative = inhibition",[3],inconclusive: 10.3% [at 42.5 µM]
CCCCCCCC(=O)OCC(COC(=O)CCCCCCC)OC(=O)CCCCCCC,Potency,[1],"inconclusive: 0.486 µM [inhibitor, full curve, poor fit]"
same,Potency,[2],inactive
same,Potency,[4],inactive
CCOc1cc(OCC)c(C(C)=O)cc1OCC,Potency,[1],"inconclusive: 4.25 µM [inhibitor, full curve]"
same,Potency,[7],"inconclusive: 23.9 µM [cytotoxic, partial curve, poor fit]"
same,Potency,[8],"inconclusive: 75.6 µM [cytotoxic, single point]"
same,Potency,[3],"inconclusive: 67.3 µM [rising, single point]"
same,Potency,[9],inactive
C[C@]12CCC(=O)C=C1C=C[C@@H]1[C@@H]2CC[C@@]2(C)[C@H]1CC[C@@]21CCC(=O)O1,Potency,[1],"inconclusive: 7.5 µM [inhibitor, single point]"
same,"activity, negative = inhibition",[2],inconclusive: 6.78% [at 42.5 µM]
same,Potency,[6],active: 1.68 µM
same,"activity change, negative = inhibition",[3],inconclusive: -9.72% [at 42.5 µM]
same,Potency,[9],"inconclusive: 2.98 µM [cytotoxic, single point]"
same,Potency,[4],"inconclusive: 11.9 µM [rising, partial curve]"
same,Potency,[5],"inconclusive: 21.3 µM [rising, partial curve]"
Cc1cc(C)cc(O)c1,Potency,[1],"inconclusive: 0.629 µM [inhibitor, single point]"
same,"activity, negative = inhibition",[2],inconclusive: 22.6%
same,Potency,[3],inactive
CN(C(=O)CCCOc1ccc2[nH]c(=O)ccc2c1)C1CCCCC1,Potency,[1],"inconclusive: 11.9 µM [inhibitor, partial curve, poor fit]"
same,"activity, negative = inhibition",[2],inconclusive: -28.5% [at 42.5 µM]
same,Potency,[6],inactive
same,"activity change, negative = inhibition",[3],inconclusive: -22.9% [at 42.5 µM]
same,Potency,[9],"inconclusive: 15 µM [rising, full curve]"
same,Potency,[4],"inconclusive: 15 µM [rising, partial curve]"
Cc1cc(OI)c(C(C)C)cc1-c1cc(C(C)C)c(OI)cc1C,Potency,[1],inactive
same,Potency,[2],inactive
same,"activity change, negative = inhibition",[3],inconclusive: -22.5% [at 42.5 µM]
C#Cc1cccc(Nc2ncnc3cc(OCCOC)c(OCCOC)cc23)c1,Potency,[1],"inconclusive: 3.76 µM [inhibitor, full curve]"
same,Potency,[7],"inconclusive: 18.8 µM [cytotoxic, partial curve, poor fit]"
same,Potency,[8],active: 2.66 µM
same,cAMP activity change,[10],"inconclusive: 51.2% [at 42.5 µM, stronger effect = higher value]"
same,Potency,[11],"inconclusive: 5.96 µM [cytotoxic, full curve, poor fit]"
same,Potency,[9],"inconclusive: 11.9 µM [rising, single point]"
same,Potency,[4],inactive
same,Potency,[5],"inconclusive: 9.52 µM [rising, partial curve]"
OCCc1ccccn1,Potency,[1],inactive
same,Potency,[2],inactive
same,Potency,[9],inactive
CC1(C)O[C@@H]2C[C@H]3[C@@H]4CCC5=CC(=O)C=C[C@]5(C)[C@H]4[C@@H](O)C[C@]3(C)[C@]2(C(=O)CO)O1,Potency,[1],inactive
same,Potency,[2],inactive
same,Potency,[6],active: 0.133 µM
same,"activity change, negative = inhibition",[3],inconclusive: 12.3% [at 42.5 µM]
same,Potency,[4],"inconclusive: 3.76 µM [rising, partial curve, poor fit]"
same,Potency,[5],"inconclusive: 23.9 µM [rising, partial curve, poor fit]"
CN1[C@@H]2CC[C@H]1CC(OC(=O)C(CO)c1ccccc1)C2 (some centres not stated),Potency,[1],"inconclusive: 27.3 µM [inhibitor] and inconclusive: 24.5 µM [inhibitor, full curve]"
same,Potency,[8],"inconclusive: 3.88 µM [cytotoxic, full curve]"
same,Potency,[12],"inconclusive: 48.5 µM [cytotoxic, partial curve, poor fit]"
same,Potency,[9],"inconclusive: 30.6 µM [cytotoxic, partial curve]"
same,Potency,[4],"active: 61.1 µM and inconclusive: 30.8 µM [cytotoxic, full curve]"
same,Potency,[13],inactive
